In patent US9763922B2 (priority 2014, dated 2017) one finds IC50 data, which are given here for 26 molecules.

For experiment [1], the system named is MYC. As to the kind of experiment: cells. The conditions noted are these: Homo sapiens, MV4-11, 4 h, read-out: Myc IC50 (μM).
Experiment [2] deals with BRD4 BD1 (Homo sapiens (Human), UniProt O60885). Particulars: read-out: BRD4 Alpha IC50.

Consider `CC(=O)N1CCc2c(c(Nc3ccc(-c4cnn(C)c4)cc3)nn2C[C@H]2C[C@@H]2F)C1` (stereo in doubt) [Example 181, 1-[3-[5-[1-methyl-3-(trifluoromethyl)pyrazol-4-yl]indolin-1-yl]-1-(oxetan-3-yl)-6,7-dihydro-4H-pyrazolo[4,3-c]pyridin-5-yl]ethanone], for which the IC50 (in general, the point on the concentration scale where inhibition reaches its midpoint) in experiment [1] turned out to be 0.31 µM; in experiment [2], 3980 nM.
The corresponding values for `CC(=O)N1CCc2c(c(Nc3cccc(-c4ccccn4)c3)nn2CC2CC2)C1` [Example 79, 1-[3-[6-(1-methylpyrazol-4-yl)-3,4-dihydro-2H-quinolin-1-yl]-1-(1-methylpyrrolidin-3-yl)-6,7-dihydro-4H-pyrazolo[4,3-c]pyridin-5-yl]ethanone] are 0.77 µM and 2020 nM.
With `CC(=O)N1CCc2c(c(Nc3cccc(-c4cnn(C)c4)c3)nn2C)C1` [Example 81, 1-(3-(3-(2,2-difluoroethyl)-6-(1-methyl-1H-pyrazol-4-yl)-3,4-dihydroquinolin-1(2H)-yl)-1-((S)-tetrahydrofuran-3-yl)-6,7-dihydro-1H-pyrazolo[4,3-c]pyridin-5(4H)-yl)ethanone], the IC50 in experiment [1] amounted to 0.5 µM; in experiment [2] it was 5290 nM.
In the case of `CC(=O)N1CCc2c(c(Nc3cccc(-c4cnn(C)c4)c3)nn2CC2COC2)C1` [Example 86, 1-[3-[3-(hydroxymethyl)-6-(1-methylpyrazol-4-yl)-3,4-dihydro-2H-quinolin-1-yl]-1-tetrahydrofuran-3-yl-6,7-dihydro-4H-pyrazolo[4,3-c]pyridin-5-yl]ethanone], the IC50 stood at 0.44 µM in experiment [1] and 2720 nM in experiment [2].
The corresponding values for `CC(=O)N1CCc2c(c(Nc3ccc(-c4cccc(CO)c4)cc3)nn2CC2CC2)C1` [Example 92, 1-[3-[3-(methoxymethyl)-6-(1-methylpyrazol-4-yl)-3,4-dihydro-2H-quinolin-1-yl]-1-tetrahydrofuran-3-yl-6,7-dihydro-4H-pyrazolo[4,3-c]pyridin-5-yl]ethanone] are 0.35 µM and 3990 nM.
As to `CC(=O)N1CCc2c(c(Nc3ccc(-c4ccncc4)cc3)nn2CC2CC2)C1` [Example 93, 1-[3-[6-(1-methylpyrazol-4-yl)-3,4-dihydro-2H-quinoxalin-1-yl]-1-[(3S)-tetrahydrofuran-3-yl]-6,7-dihydro-4H-pyrazolo[4,3-c]pyridin-5-yl]ethanone], the IC50 is 0.36 µM in experiment [1] and 4330 nM in experiment [2].
For `CC(=O)N1CCc2c(c(Nc3ccc(-c4ccccc4F)cc3)nn2CC2CC2)C1` [Example 94] the same measures were 0.38 µM and 3540 nM.
`CC(=O)N1CCc2c(c(Nc3ccc(-c4cccc(F)c4)cc3)nn2CC2CC2)C1` [Example 95, 1-[3-[4-methyl-6-(1-methylpyrazol-4-yl)-2,3-dihydroquinoxalin-1-yl]-1-[(3S)-tetrahydrofuran-3-yl]-6,7-dihydro-4H-pyrazolo[4,3-c]pyridin-5-yl]ethanone]: the IC50 turned out to be 1.04 µM in experiment [1] and 3570 nM in experiment [2].
The corresponding values for `CC(=O)N1CCc2c(c(Nc3ccc(-c4cn[nH]c4)cc3)nn2CC2CC2)C1` [Example 98, 1-(3-((4-(1H-pyrazol-4-yl)phenyl)amino)-1-(cyclopropylmethyl)-6,7-dihydro-1H-pyrazolo[4,3-c]pyridin-5(4H)-yl)ethanone] are 0.2 µM and 4420 nM.
The corresponding values for `CC(=O)N1CCc2c(c(Nc3ccc(-c4ccn(C)n4)cc3)nn2CC2CC2)C1` [Example 103, 1-(5-acetyl-1-tetrahydrofuran-3-yl-6,7-dihydro-4H-pyrazolo[4,3-c]pyridin-3-yl)-4-methyl-6-(1-methylpyrazol-4-yl)-3,4-dihydro-2H-quinoline-7-carbonitrile] are 0.24 µM and 3780 nM.
The corresponding values for `CC(=O)N1CCc2c(c(Nc3ccc(-c4cccc(C(C)O)c4)cc3)nn2C)C1` (stereo not drawn) [Example 106, 1-[3-[4-methyl-6-(1-methylpyrazol-4-yl)-3,4-dihydro-2H-quinolin-1-yl]-1-tetrahydrofuran-3-yl-6,7-dihydro-4H-pyrazolo[4,3-c]pyridin-5-yl]ethanone] are 1.09 µM and 5040 nM.
Regarding `CC(=O)N1CCc2c(c(Nc3ccc(-c4cnn(CC(F)(F)F)c4)cc3)nn2C)C1` [Example 108, 1-[3-[4-ethyl-6-(1-methylpyrazol-4-yl)-3,4-dihydro-2H-quinolin-1-yl]-1-tetrahydrofuran-3-yl-6,7-dihydro-4H-pyrazolo[4,3-c]pyridin-5-yl]ethanone], the figures for the IC50 in experiment [1] and in experiment [2] were 1.09 µM and 9060 nM, respectively.
For `CC(=O)N1CCc2c(c(Nc3ccc(-c4ccnn4C)cc3)nn2C)C1` [Example 109, 1-[3-[3-methyl-6-(1-methylpyrazol-4-yl)-3,4-dihydro-2H-quinolin-1-yl]-1-(oxetan-3-yl)-6,7-dihydro-4H-pyrazolo[4,3-c]pyridin-5-yl]ethanone] the same measures were 1.11 µM and 7870 nM.
The corresponding values for `CC(=O)N1CCc2c(c(Nc3ccc(-c4cn(C)nc4C)cc3)nn2C)C1` [Example 111, (S, S)-1-[3-[4-methyl-6-(1-methylpyrazol-4-yl)-3,4-dihydro-2H-quinolin-1-yl]-1-tetrahydrofuran-3-yl-6,7-dihydro-4H-pyrazolo[4,3-c]pyridin-5-yl]ethanone] are 0.116 µM and 5590 nM.
Turning to `CC(=O)N1CCc2c(c(Nc3ccc(-c4cn(C)nc4C(F)(F)F)cc3)nn2C)C1` [Example 112, (S, R)-1-[3-[4-methyl-6-(1-methylpyrazol-4-yl)-3,4-dihydro-2H-quinolin-1-yl]-1-tetrahydrofuran-3-yl-6,7-dihydro-4H-pyrazolo[4,3-c]pyridin-5-yl]ethanone], the IC50 is 0.18 µM in experiment [1] and 2200 nM in experiment [2].
Consider `CC(=O)N1CCc2c(c(Nc3ccc(-c4c(C)nn(C)c4C)cc3)nn2C)C1` [Example 113, (S, R)-1-[3-[3-methyl-6-(1-methylpyrazol-4-yl)-3,4-dihydro-2H-quinolin-1-yl]-1-tetrahydrofuran-3-yl-6,7-dihydro-4H-pyrazolo[4,3-c]pyridin-5-yl]ethanone], for which the concentration for half-maximal inhibition (IC50) in experiment [1] worked out at 1.88 µM; in experiment [2], 10500 nM.
Consider `CC(=O)N1CCc2c(c(Nc3ccc(-c4cnn(C(F)F)c4)cc3)nn2C)C1` [Example 114, (S, S)-1-[3-[3-methyl-6-(1-methylpyrazol-4-yl)-3,4-dihydro-2H-quinolin-1-yl]-1-tetrahydrofuran-3-yl-6,7-dihydro-4H-pyrazolo[4,3-c]pyridin-5-yl]ethanone], for which the IC50 in experiment [1] was determined as 1.2 µM; in experiment [2], 8160 nM.
For `CC(=O)N1CCc2c(c(Nc3ccc(-c4cnn5c4CCCC5)cc3)nn2C)C1` [Example 152, 3-[7-(difluoromethoxy)-6-(1-methylpyrazol-4-yl)-3,4-dihydro-2H-quinolin-1-yl]-1-tetrahydropyran-4-yl-6,7-dihydro-4H-pyrazolo[4,3-c]pyridine-5-carboxamide] the same measures were 0.38 µM and 3660 nM.
The corresponding values for `CC(=O)N1CCc2c(c(Nc3ccc(-c4cnn(C5CC5)c4)cc3)nn2C)C1` [Example 153, 3-[7-cyano-6-(1-methylpyrazol-4-yl)-3,4-dihydro-2H-quinolin-1-yl]-1-tetrahydropyran-4-yl-6,7-dihydro-4H-pyrazolo[4,3-c]pyridine-5-carboxamide] are 0.64 µM and 5360 nM.
The corresponding values for `CC(=O)N1CCc2c(c(Nc3ccc(-c4cncnc4)cc3)nn2C)C1` [Example 156, N-methyl-3-[6-(1-methylpyrazol-4-yl)-3,4-dihydro-2H-quinolin-1-yl]-1-[(3S)-tetrahydrofuran-3-yl]-6,7-dihydro-4H-pyrazolo[4,3-c]pyridine-5-carboxamide] are 2.29 µM and greater than 19700 nM.
As to `CC(=O)N1CCc2c(c(Nc3ccc(-c4ccc(N)nc4)cc3)nn2C)C1` [Example 157, 3-[7-(difluoromethoxy)-6-(1-methylpyrazol-4-yl)-3,4-dihydro-2H-quinolin-1-yl]-N-methyl-1-tetrahydropyran-4-yl-6,7-dihydro-4H-pyrazolo[4,3-c]pyridine-5-carboxamide], the figures for the IC50 in experiment [1] and in experiment [2] were 0.69 µM and 4520 nM, respectively.
Take `CC(=O)N1CCc2c(c(Nc3ccc(-c4cccnc4OC(C)C)cc3)nn2C)C1` [Example 159, 3-[7-cyano-6-(1-methylpyrazol-4-yl)-3,4-dihydro-2H-quinolin-1-yl]-N-methyl-1-tetrahydropyran-4-yl-6,7-dihydro-4H-pyrazolo[4,3-c]pyridine-5-carboxamide]: the IC50 in experiment [1] turned out to be 1.89 µM; in experiment [2] it was 2630 nM.
As to `CC(=O)N1CCc2c(c(Nc3ccc(-c4cn(C)nc4C(N)=O)cc3F)nn2C2CCOC2)C1` (stereo not drawn) [Example 247, 1-[3-[6-(1-methylpyrazol-4-yl)-7-(trifluoromethoxy)-3,4-dihydro-2H-quinolin-1-yl]-1-tetrahydropyran-4-yl-6,7-dihydro-4H-pyrazolo[4,3-c]pyridin-5-yl]ethanone], the IC50 in experiment [2] was determined as 9080 nM.
Still for that read-out and setting: as for `CCCC(=O)N1CCc2c(c(Nc3cc(C(F)F)c(-c4cnn(C)c4)cc3F)nn2C2CCOCC2)C1` [Example 253, 3-[6-(difluoromethyl)-5-(1,5-dimethylpyrazol-4-yl)indolin-1-yl]-N-methyl-1-tetrahydropyran-4-yl-6,7-dihydro-4H-pyrazolo[4,3-c]pyridine-5-carboxamide], the figure is greater than 20000 nM.
Same read-out and setting: as for `CCCC(=O)N1CCc2c(c(Nc3ccc(-c4cnn(C)c4)c(C(F)F)c3)nn2C2CCOC2)C1` (stereo not drawn) [Example 255, N-methyl-3-[7-methyl-6-(1-methylpyrazol-4-yl)-3,4-dihydro-2H-quinolin-1-yl]-1-tetrahydropyran-4-yl-6,7-dihydro-4H-pyrazolo[4,3-c]pyridine-5-carboxamide], the figure is greater than 20000 nM; as for `Cn1cc(-c2ccc(Nc3nn([C@H]4CCOC4)c4c3CN(C(N)=O)CC4)c(F)c2)cn1` [Example 258, 3-[7-cyclopropyl-6-(1-methylpyrazol-4-yl)-3,4-dihydro-2H-quinolin-1-yl]-N-methyl-1-tetrahydropyran-4-yl-6,7-dihydro-4H-pyrazolo[4,3-c]pyridine-5-carboxamide], greater than 20000 nM.
